# Measured values: PMC4336329 (PLoS ONE, 2015)
# In all, about 310,000 compounds went through this assay and about 2,200 (0.71%) showed an effect of 50% or more. Effects have a minus sign here. The list shows a part of the results.
# Molecular target: human ether-à-go-go-related gene (hERG) potassium channel (human, UniProt Q12809)
# Test: primary screen, population patch clamp on CHO cells stably expressing hERG
# human ether-à-go-go-related gene (hERG) potassium channel, sequence (Q12809 whole entry, looked up): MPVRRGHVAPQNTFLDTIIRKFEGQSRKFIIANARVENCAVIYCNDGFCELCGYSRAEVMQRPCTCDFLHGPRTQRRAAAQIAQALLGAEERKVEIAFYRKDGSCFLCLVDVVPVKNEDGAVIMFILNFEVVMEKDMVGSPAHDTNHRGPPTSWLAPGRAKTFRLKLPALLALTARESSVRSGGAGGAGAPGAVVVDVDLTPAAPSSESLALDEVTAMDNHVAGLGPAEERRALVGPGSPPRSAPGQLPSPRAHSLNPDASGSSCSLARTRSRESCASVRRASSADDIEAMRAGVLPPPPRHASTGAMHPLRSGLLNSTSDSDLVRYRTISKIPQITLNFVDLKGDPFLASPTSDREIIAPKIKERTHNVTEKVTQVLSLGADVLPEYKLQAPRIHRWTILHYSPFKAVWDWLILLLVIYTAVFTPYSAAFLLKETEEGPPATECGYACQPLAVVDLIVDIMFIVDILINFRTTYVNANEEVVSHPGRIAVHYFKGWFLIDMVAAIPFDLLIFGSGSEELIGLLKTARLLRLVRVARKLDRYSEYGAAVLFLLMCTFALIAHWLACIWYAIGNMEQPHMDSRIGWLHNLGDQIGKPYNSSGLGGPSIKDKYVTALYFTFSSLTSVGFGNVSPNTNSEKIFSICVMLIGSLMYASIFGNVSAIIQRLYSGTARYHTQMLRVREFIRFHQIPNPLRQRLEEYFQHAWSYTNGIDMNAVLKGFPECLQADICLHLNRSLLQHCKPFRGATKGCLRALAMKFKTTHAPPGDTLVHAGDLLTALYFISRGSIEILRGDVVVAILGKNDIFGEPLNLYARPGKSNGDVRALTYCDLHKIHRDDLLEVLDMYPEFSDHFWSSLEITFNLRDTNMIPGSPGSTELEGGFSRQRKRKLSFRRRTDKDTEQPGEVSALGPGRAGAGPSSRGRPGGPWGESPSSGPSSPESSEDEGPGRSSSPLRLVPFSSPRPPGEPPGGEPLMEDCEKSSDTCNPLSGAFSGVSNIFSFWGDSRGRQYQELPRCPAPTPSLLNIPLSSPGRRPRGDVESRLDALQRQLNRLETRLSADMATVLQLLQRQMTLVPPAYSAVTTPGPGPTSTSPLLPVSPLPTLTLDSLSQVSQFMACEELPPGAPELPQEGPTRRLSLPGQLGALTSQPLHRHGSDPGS
row,SMILES,"hERG current change (%, negative = inhibition) at 1uM [%]"
1,O=C(Cn1cnc2c(nnn2Cc2ccc(F)cc2)c1=O)NC1CCCC1,9.74
2,Fc1ccc(COc2cccc3cccnc23)cc1,11
3,O=c1sc2ccccc2n1CCCOc1ccccc1,9.71
4,Cc1ccc2[nH]c(O)c(N=NC(=O)c3ccc(NS(=O)(=O)c4cccs4)cc3)c2c1,8.69
5,O=C(Nc1ccc(S(=O)(=O)N2CCCC2)cc1)c1ccc2c(=O)n3c(nc2c1)CCCCC3,10.1
6,CCN(C(=O)CSc1nc2ccccc2n1CCc1ccccc1)C1CCS(=O)(=O)C1 (centres unmarked),1.87
7,Cc1ccccc1-c1noc(CNC(=O)COc2ccccc2)n1,2.09
8,O=c1[nH]n(-c2ccc([N+](=O)[O-])cc2)c(=O)c2ccccc12,3.44
9,NC(=O)c1cc([N+](=O)[O-])ccc1NCc1ccc(N)cc1,16.5
10,O=C(/C=C/c1ccc([N+](=O)[O-])cc1)/C=C/c1ccco1,5.91
11,Cc1ccccc1NC1=C(C(=O)c2ccccc2)N(C)S(=O)(=O)c2ccccc21,10.2
12,Cc1ccc(CN(c2ccc(C(=O)N3CCCC3)cc2)S(C)(=O)=O)cc1,12.8
13,CCN1CCN(c2ccc(S(=O)(=O)N3CCCCC3)cc2NC(=O)Cc2ccc(OC)cc2)CC1,-13.7
14,Cc1ccc(-c2nnc(SCC(=O)Nc3ccc4c(c3)OCCO4)n2N)cc1,-1.89
15,CCOC(=O)c1c(NC(=O)COC(=O)CCCOc2ccc(OC)cc2)sc(C(=O)NC)c1C,-2.22
16,NS(=O)(=O)c1cccc(NC(=O)c2cccc(Oc3ccccc3)c2)c1,12.8
17,COc1ccc(-c2cnn3c4c(c(C)nc23)CCN4C(C)C)cc1OC,14.3
18,Cc1ccc(NC(=O)C/C(N)=N/OC(=O)Nc2cccc(Cl)c2)cc1,15.2
19,CCCNC(=O)c1c(O)c2cccc3c2n(c1=O)CCC3,10.5
20,Cc1ccc(OC(=O)c2ccccc2C(=O)OCC(F)(F)C(F)F)cc1,14
21,O=C(OCC(=O)N1CCOCC1)c1ccccc1Cc1ccccc1,-0.874
22,O=C(c1ccccc1NS(=O)(=O)c1ccc(F)cc1)N1CCOCC1,4.8

row,SMILES,"hERG current change (%, negative = inhibition) at 1uM [%]"
1,Cc1nn(-c2cc(N3CCCCCC3)ccc2[N+](=O)[O-])c(=O)c2ccccc12,17.3
2,O=c1c2[nH]c3ccccc3c2ncn1Cc1ccccn1,8.6
3,CCCCc1nnc2c(N(C)S(=O)(=O)c3ccccc3)nc3ccccc3n12,10.2
4,CC(C)Cc1ccc(C(C)C(=O)Nc2cccnc2)cc1 (centres unmarked),16.1
5,C/C(=N\NS(=O)(=O)c1ccccc1)c1cc(Cl)cc(Cl)c1O,9.56
6,C/C(=N\N=C(N)N)c1ccccc1,13.3
7,CN=c1scc(-c2ccccc2F)n1/N=C/c1ccc[nH]1,12.7
8,Cn1c(=O)c(NC(=O)c2ccccc2)c2n(c1=S)CCCCC2,11.7
9,COc1ccc(OCCCC(=O)N(C)CC(=O)Nc2ccccc2Cl)cc1,0.818
10,CCOC(=O)CNC(=O)COc1coc(CN2CCN(c3ccccc3)CC2)cc1=O,11.5
11,COCCn1c(SCC(=O)c2ccccc2)nc2c(c1=O)SC(C)C2 (centres unmarked),11.9
12,Brc1cnc2nc[nH]c2c1,15.8
13,Nc1c(C(=O)N2CCOCC2)oc2ccccc12,25.2
14,CC(=O)N1N=C(c2ccc(Cl)cc2)CC1c1ccc([N+](=O)[O-])cc1 (centres unmarked),11
15,CN1[C@@H]2CC[C@H]1CC(OC1c3ccccc3CCc3ccccc31)C2.O=C(O)CC(O)(CC(=O)O)C(=O)O (some centres unmarked),-2.76
16,O=C(C#Cc1ccccc1)NCc1ccccc1F,6.82
17,COc1cc(NC(=O)CN2C(=O)NC(C)(c3ccccc3)C2=O)c(C)cc1[N+](=O)[O-] (centres unmarked),1.93
18,NC1=NC(=Nc2ccc(Cl)cc2)c2ccccc21,2.09
19,Cn1c(SCC(=O)Nc2cccc(Br)c2)nnc1-c1cc2ccccc2o1,10.2
20,CC(C)CS(=O)(=O)C1=NSC2=NC(=O)/C(=C\c3ccc(OC(=O)c4ccco4)cc3)C(=N)N21,14.5
21,CCOC(=O)c1sc(NC(=O)CCN2CCN(C)CC2)c(C(=O)OCC)c1C,-15.3
22,O=C(Nc1cccc(-c2ccc(N3CCCCC3)nn2)c1)c1ccco1,9.27
